According to PubChem BioAssay AID445 (National Center for Advancing Translational Sciences (NCATS), 2006):
Out of some 110,000 compounds screened, about 40 (0.04%) were called active. The inconclusive results got no clear call from the source; some entries with a clear call stand among them for comparison. The call rests on the fitted dose curve; in most records, active means well fitted curve in the direction sought with a large enough effect in the signal ratio (not every such curve was filed as active); inconclusive means small, poorly fitted or top-dose-only effect, or a change in a side signal; inactive means flat fitted curve, though single readings scatter; the % refers to the signal ratio. A potency beside an inconclusive call is a rough fit, not a confirmed value.

assay: IkB Signaling; conditions: ABC-DLBCL IkBa-CBG/CBR dual luciferase ratio (green luciferase fused to IkBa over red control in OCI-Ly3 lymphoma cells), 4 h; IkBa stabilization activation: at 57.1 µM (top of the series), scaled: untreated 0%, proteasome inhibitor 100% unless noted;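 on IkBa stabilization activation: 0% = basal untreated cells and 100% = reference inhibitor full response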
How it was run: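 Luminescence ratio of IκBα-fused green versus native red beetle luciferase in OCI-Ly3 cells, 4 h post-doxycycline with compound; red signal alone, scaled from basal (0%) to zero light (-100%), flagged nonspecific or cytotoxic effects.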
Potency means the concentration at half of the fitted maximal effect.

| Compound | IkBa stabilization activation | Potency |
| --- | --- | --- |
| COc1ccccc1N1CCN(S(=O)(=O)c2c(C)sc3ncn(CC(=O)Nc4ccc(C(C)C)cc4)c(=O)c23)CC1 | inconclusive: 6.88% [signal inhibitor] | – |
| Cc1ccc(N2CCN(C(=O)c3ccc(Nc4nc5ccccc5n5nnnc45)cc3)CC2)c(C)c1 | – | inconclusive: 6.31 µM [signal inhibitor, partial curve] |
| COC(=O)c1c(NC(=O)CCc2ccc(C)o2)sc(C)c1C | inconclusive: 9.73% [signal inhibitor] | – |
| Cc1ccc2ncc(S(=O)(=O)c3ccccc3)c(N3CCCCC3C)c2c1 (stereo not given) | inconclusive: 2.24% [signal inhibitor] | – |
| CCS(=O)(=O)N1CCN(Cc2ccncc2)CC1 | inconclusive: -0.602% [signal activator] | – |
| Br/C(=N\Nc1nn[nH]n1)c1ccncc1 | inactive: -2.61% [at 11.4 µM, scaled: untreated 0%, proteasome inhibitor 100%] | – |
| COc1ccc(C2=NC3(CCCCCC3)N(CC(=O)Nc3ccc(C)c(C)c3)C2=O)cc1 | inconclusive: 0.748% [signal inhibitor] | – |
| COc1ccc(CNC(=O)CN(c2cc(C(F)(F)F)ccc2Cl)S(C)(=O)=O)cc1 | inconclusive: 4.4% [signal inhibitor] | – |
| CCn1c(C)c(C)c2cc(C(=O)NCc3ccc(N(C)C)cc3)ccc21 | inconclusive: -1.73% [signal activator] | – |
| Cc1ccc(C(=O)c2oc3ccccc3c2NC(=O)c2cc(-c3ccc(Cl)cc3)on2)cc1 | inconclusive: 1.13% [signal inhibitor] | – |
| CCOC(=O)C1CCCN(C(=O)c2sc3nc(-c4ccc(F)cc4)cn3c2C)C1 (stereo not given) | inconclusive: 1.3% [signal inhibitor] | – |
| CCCCCCS(=O)Cc1ccccc1 (stereo not given) | inactive | – |
| Cc1ccccc1Nc1sc(C(=O)c2ccc(F)cc2)c(N)c1C(=O)NCCc1ccccc1 | inconclusive: 2.28% [signal inhibitor] | – |
| c1ccc(C2=Nn3c(nnc3-c3n[nH]c4c3CCC4)SC2)cc1 | inactive | – |
| Cc1cccc(N2CCN(C(=O)C34CC5CC(CC(C5)C3)C4)CC2)c1C | inconclusive: 3.91% [signal inhibitor] | – |
| Cc1nc(-c2ccc(S(=O)(=O)N3CCN(c4cccc(Cl)c4)CC3)cc2)co1 | inconclusive: 1.33% [signal inhibitor] | – |
| CC(=O)c1cccc(NC(=O)c2sc(-n3nc(C)c(CCC(C)C)c3C)nc2C)c1 | inconclusive: -0.0675% [signal inhibitor] | – |
| COc1ccc(NS(=O)(=O)c2ccc3c(c2)Cc2ccccc2-3)cn1 | inconclusive: 5.3% [signal inhibitor] | – |
| COc1cc(NC(=O)Cn2c(=O)n(CC(=O)NCCc3ccc(OC)c(OC)c3)c(=O)c3sccc32)cc(OC)c1 | inactive | – |
| COc1ccc2nc(NCN3C(=O)c4ccccc4C3=O)sc2c1 | inactive: 1.89% [at 11.4 µM, scaled: untreated 0%, proteasome inhibitor 100%] | – |
| CC(=O)Nc1ccc(S(=O)(=O)NCC2CCC(C(=O)NCc3ccccc3Cl)CC2)cc1 (stereo not given) | inconclusive: 3.09% [signal inhibitor] | – |
| CSc1ccc(CNC(=O)Cc2csc3ccccc23)cc1 | inconclusive: 0.596% [signal inhibitor] | – |
| COCC(=O)N(Cc1cc2cc(OC)ccc2[nH]c1=O)c1ccccc1 | inactive | – |
| CC(=O)NCCNc1nc2c(-c3cccc(C)c3)nnn2c2ccc(Cl)cc12 | – | inconclusive: 25.1 µM [signal inhibitor, partial curve] |

| Compound | IkBa stabilization activation | Potency |
| --- | --- | --- |
| C1=CC2c3ccccc3NC(c3ccncc3)C2C1 (stereo not given) | inconclusive: 12% | – |
| Cc1cc(NC(=O)CSc2nnc(-c3ccc4c(c3)OCCO4)o2)no1 | inactive | – |
| CCCCNc1ncnc2c1cnn2-c1ccccc1 | – | inconclusive: 15.8 µM [signal inhibitor, partial curve] |
| COc1ccc(-n2nnnc2C2CCN(S(=O)(=O)c3ccc(F)cc3Cl)CC2)cc1 | inconclusive: -2.74% [signal inhibitor] | – |
| COc1ccc2c(CNC3CCCC3)c(C(=O)O)n(Cc3ccccc3C)c2c1 | inconclusive: -2.21% [signal inhibitor] | – |
| CCc1nn2c(=O)cc(COC(=O)c3cccc(NC(=O)c4ccccc4C)c3)nc2s1 | inconclusive: 3.32% [signal inhibitor] | – |
| CCOC(=O)CSc1nc2c(sc3ccccc32)c(=O)n1CCCN1CCOCC1 | inactive | – |
| Cc1cc(N2CCOCC2)nc(SCC(=O)c2ccc(Cl)cc2)n1 | inactive | – |
| COCCn1c(=O)c(-c2cccc(C#N)c2)nc2cnc(N(C)C)nc21 | inactive: 1.45% [at 11.4 µM, scaled: untreated 0%, proteasome inhibitor 100%] | – |
| CCCn1nnc(NC(=O)COc2ccccc2Cl)n1 | inactive | – |
| Cc1cc(C)c2c(=O)cc(C(=O)Nc3sc4c(c3C#N)CCCC4)oc2c1 | inconclusive: 5.28% [signal inhibitor] | – |
| Cc1ccccc1NC(=O)CN1C(=O)C2(SCC(=O)N2c2ccc(F)cc2)c2ccccc21 (stereo not given) | inconclusive: 0.244% [signal inhibitor] | – |
| O=C(Nc1cc(C(F)(F)F)ccc1Cl)c1noc2c1CCCCC2 | – | inconclusive: 25.1 µM [signal inhibitor] |
| COC(=O)c1[nH]c2cc(C)ccc2c1NC(=O)CN1CCN(c2ccccc2OC)CC1 | inconclusive: 1.41% [signal inhibitor] | – |
| COC(=O)C1=C(CN2CCCc3ccccc32)NC(=O)NC1c1ccc(F)cc1 (stereo not given) | inconclusive: 1.49% [signal inhibitor] | – |
| Cc1ccc(C(=O)Nc2nnc(S(=O)(=O)N(C)Cc3ccco3)s2)cc1 | inactive | – |
| CC1CCN(S(=O)(=O)c2ccc3c(ccn3CC(=O)NCc3ccccc3F)c2)CC1 | inconclusive: 0.155% [signal inhibitor] | – |
| Cc1cccc(-n2nnc(-c3nc(-c4ccccc4)no3)c2N)c1C | inconclusive: 10.8% [signal inhibitor] | – |
| O=C(Nc1cccc(C(F)(F)F)c1)c1cc(-c2ccc(Cl)cc2)on1 | – | inconclusive: 15.8 µM [signal inhibitor] |
| CCc1nc2c(cnn2-c2ccc(C)cc2)c(=O)n1-c1ccc(C)cc1 | inconclusive: 3.05% [signal inhibitor] | – |
| Cc1cccc(CSc2nncc(=O)[nH]2)c1 | inactive | – |
| COc1ccc(S(=O)(=O)c2c(SC)nn(CC(=O)Nc3ccc(C)c(Cl)c3)c2N)cc1 | inconclusive: 11.9% [signal inhibitor] | – |
| COc1ccc(C)cc1S(=O)(=O)Nc1ccc(F)c(Cl)c1 | inconclusive: 2.6% [signal inhibitor] | – |
| CC(C)CCNC(=O)c1cnn2c(C(F)(F)F)cc(-c3ccco3)nc12 | inactive | – |

| Compound | IkBa stabilization activation | Potency |
| --- | --- | --- |
| CCOC(=O)c1[nH]c2ccccc2c1NC(=O)c1cc(OC)cc(OC)c1 | inconclusive: 7.68% [signal inhibitor] | – |
| O=C(Cc1ccccc1)Nc1nc2ccc(Cl)cc2c2nc(-c3ccco3)nn12 | inactive | – |
| Cn1ccnc1SCC(=O)Nc1ccc2ccccc2c1 | inconclusive: 14.8% [signal inhibitor] | – |
| COc1ccc(S(=O)(=O)N2CCN(CC(=O)Nc3ccc(F)c(F)c3)CC2)cc1 | inconclusive: 5.43% [signal inhibitor] | – |
| N#CC1=C(SCc2ccccc2)NC(=O)CC1c1ccco1 (stereo not given) | – | inconclusive: 12.6 µM [signal inhibitor, partial curve] |
| CCCOc1ccc(Cn2cnc3ccccc32)cc1 | inconclusive: 3.33% [signal inhibitor] | – |
| Cc1ccccc1-c1nc2c3c(-c4ccccc4)c(-c4ccccc4)oc3ncn2n1 | inactive | – |
| CN=c1scc(C)n1/N=C/c1ccc(O)cc1O | – | inconclusive: 15.8 µM [signal inhibitor, partial curve] |
| Cc1ccc(CN(C(=O)c2ccc(F)cc2)c2ccccn2)o1 | inconclusive: 1.76% [signal inhibitor] | – |
| Cc1ccc(CNc2nc3c(c(=O)n(C)c(=O)n3C)n2Cc2ccc(Cl)cc2)cc1 | inconclusive: 5.18% [signal inhibitor] | – |
| CCn1c(=O)n(-c2ccc(F)c(Cl)c2)c(=O)c2sc3ccccc3c21 | inactive | – |
| COc1ccc2c(c1)c(CC(=O)Nc1cccc(F)c1C)c(C)n2C(=O)c1ccc(Cl)cc1 | inconclusive: 14% [signal inhibitor] | – |
| C=CC(=O)CC | inactive | – |
| COc1cccc(-n2ccn(CC(=O)Nc3ccccc3F)c(=O)c2=O)c1 | inconclusive: 3.1% [signal inhibitor] | – |
| Cc1ccc(-c2nc(C#N)c(NCc3cccc4c3OCO4)o2)cc1 | – | inconclusive: 31.6 µM [rising, partial curve] |
| Cc1ccc(CNS(=O)(=O)c2cc(C(=O)Nc3ccc(C(C)C)cc3)ccc2F)cc1 | inconclusive: 1.09% [signal inhibitor] | – |
| CCN(CC)c1ccc(NC(=O)c2ccccc2F)cc1 | inconclusive: 14.2% [signal inhibitor] | – |
| CCc1ccccc1NC(=O)Cn1cc(C(=O)c2ccc(Cl)cc2)c(=O)c2ccc(C)nc21 | inactive | – |
| CC1(C)CC(N=C=O)CC(C)(CN=C=O)C1 (stereo not given) | inactive | – |
| Cc1c(CNC2CCC(C)CC2)c(C(=O)O)c(C)n1Cc1ccc(Cl)cc1 (stereo not given) | inconclusive: 2.22% [signal inhibitor] | – |
| Cn1cccc1C(C(=O)NC1CCCCC1)N(C(=O)Cc1cccs1)c1ccc2c(c1)OCCO2 (stereo not given) | inconclusive: 0.693% [signal inhibitor] | – |
| CCOC(=O)C(CC)Sc1ncnc2c1c(-c1ccccc1)cn2-c1ccc(OC)cc1 (stereo not given) | inconclusive: -4.35% [signal inhibitor] | – |
